Laboratory results: PMC4336329 (PLoS ONE, 2015)
Hit rate of the full screen: of about 310,000 compounds, about 2,200 (0.71%) showed an effect of 50% or more. Effects have a minus sign here. Some of the results follow.

biological target: human ether-à-go-go-related gene (hERG) potassium channel (human, UniProt Q12809); experiment: primary screen, population patch clamp on CHO cells stably expressing hERG
Sequence (Q12809 whole entry, looked up): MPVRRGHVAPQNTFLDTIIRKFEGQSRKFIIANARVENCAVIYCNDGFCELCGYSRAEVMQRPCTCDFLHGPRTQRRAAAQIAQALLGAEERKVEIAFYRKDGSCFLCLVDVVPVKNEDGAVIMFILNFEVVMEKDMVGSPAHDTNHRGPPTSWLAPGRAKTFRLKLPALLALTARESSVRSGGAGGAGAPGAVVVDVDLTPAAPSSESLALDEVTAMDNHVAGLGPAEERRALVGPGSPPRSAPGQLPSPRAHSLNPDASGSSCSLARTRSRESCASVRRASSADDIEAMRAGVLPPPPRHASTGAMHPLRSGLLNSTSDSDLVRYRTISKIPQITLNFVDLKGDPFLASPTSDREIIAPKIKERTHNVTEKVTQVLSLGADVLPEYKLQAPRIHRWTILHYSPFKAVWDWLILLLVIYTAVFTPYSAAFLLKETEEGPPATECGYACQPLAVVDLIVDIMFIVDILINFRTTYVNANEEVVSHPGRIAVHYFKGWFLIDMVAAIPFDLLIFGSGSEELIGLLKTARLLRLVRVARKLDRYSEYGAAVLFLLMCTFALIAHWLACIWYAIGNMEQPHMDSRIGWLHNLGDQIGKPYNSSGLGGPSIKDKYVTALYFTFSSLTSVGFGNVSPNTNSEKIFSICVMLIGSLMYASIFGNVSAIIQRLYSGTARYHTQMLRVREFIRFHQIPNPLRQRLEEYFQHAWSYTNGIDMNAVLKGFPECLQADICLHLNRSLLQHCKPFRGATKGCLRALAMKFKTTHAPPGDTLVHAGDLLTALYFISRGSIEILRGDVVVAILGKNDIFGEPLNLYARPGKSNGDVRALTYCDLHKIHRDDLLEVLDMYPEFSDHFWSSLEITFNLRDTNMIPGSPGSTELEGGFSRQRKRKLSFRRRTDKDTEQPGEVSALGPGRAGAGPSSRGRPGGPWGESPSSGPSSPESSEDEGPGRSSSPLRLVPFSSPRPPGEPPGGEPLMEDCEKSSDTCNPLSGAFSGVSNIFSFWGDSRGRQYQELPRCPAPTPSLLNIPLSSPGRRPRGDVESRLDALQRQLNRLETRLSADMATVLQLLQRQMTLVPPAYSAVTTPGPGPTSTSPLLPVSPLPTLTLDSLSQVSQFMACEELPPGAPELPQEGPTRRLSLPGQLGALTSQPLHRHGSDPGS

Structure (SMILES)	hERG current change (%, negative = inhibition) at 1uM [%]
NC(=O)c1cccc(CS(=O)(=O)c2ccc(Cl)cc2)c1	8.96
Cc1nonc1C1CCCN1Cc1cn[nH]c1-c1ccc2c(c1)OCO2 (stereo not shown)	-7.9
COc1ccc(S(=O)(=O)N2CCC(C(=O)NCc3ccccc3)CC2)cc1OC	13.7
CCCN(Cc1cc2cc(C)ccc2[nH]c1=O)C(=O)c1ccccn1	7.13
C/C(=N\NC(=O)COc1cccc(Br)c1)c1ccc2c(c1)OCCO2	12.5
C=CCNc1ncnc2c1cnn2-c1ccc(OC)cc1	18.8
O=C(Nc1cccc(Cl)c1N1CCOCC1)c1cccnc1	-12.7
C/C(=N\NC(=O)c1nc2ccccn2c1C)c1cccc([N+](=O)[O-])c1	-5.4
CC(C)(C)c1ccc(-n2ncc3c2CCCC3NC(=O)C2(C(N)=O)CC2)cc1 (stereo not shown)	8.44
C=CCNC(=O)C(=O)NCC(c1ccc2c(c1)OCO2)N1CCN(c2ccc(F)cc2)CC1 (stereo not shown)	5.04
COc1cccc(CN2CCN(CCCc3ccccc3)C(CCO)C2)c1O (stereo not shown)	-41.8
Cc1ccc2nc(C3CCN(CC(=O)Nc4ccc5c(c4)OCCO5)CC3)[nH]c2c1	-18.6
O=[N+]([O-])c1cccc(S(=O)(=O)NC2CC3CCC2C3)c1 (stereo not shown)	12.8
Cc1ccc(NC(=O)Cc2noc3ccccc23)c(C)c1	10.6
O=S(Cc1cc(Sc2ccccc2)nc(-c2ccccc2)n1)c1ccccc1 (stereo not shown)	7.66
CCCCn1c(O)c(C(=O)/C=C/c2ccc3c(c2)OCO3)c(=O)[nH]c1=O	11.9
O=C(Cc1c(O)c2ccccc2[nH]c1=O)NC1CCCCCC1	14.5
Cc1ccc(NS(=O)(=O)c2ccc(NC(=O)c3ccc(Br)o3)cc2)c(C)c1	15.2
CCCCCCn1c(SCCC)nc2c1c(=O)[nH]c(=O)n2C	9.91
O=C(CN1CCCC1)Nc1ccc(F)cc1	16.6
COc1ccc(CN2CCC(CO)(CCOc3ccccc3)CC2)c(OC)c1C	-81.6
Br.CCn1c(=N)n(CC(=O)c2ccco2)c2ccccc21	9.28

Structure (SMILES)	hERG current change (%, negative = inhibition) at 1uM [%]
NC(N)=O	14.9
O=C(OCc1ccc2c(c1)OCO2)c1cccc(S(=O)(=O)N2CCCCC2)c1	12
Cc1nc(SCn2nnc3ccccc3c2=O)nc(C)c1C	-2.99
CC(C)[C@H](NC(=O)c1ccccc1Br)C(=O)OCc1nc2ccsc2c(=O)[nH]1	1.28
O=C(Cn1ccc(C(F)(F)F)n1)NNC(=O)c1ccco1	9.22
COc1cc(-c2nnc(NC(=O)CCS(=O)(=O)c3ccc(F)cc3)o2)cc(OC)c1OC	9.06
CCn1c(C)nc2c(=O)oc3ccccc3c21	3.07
Cc1ccc(C)c(NC(=O)COC(=O)CNC(=O)c2ccccc2Cl)c1	9.98
COc1ccc(CNC(=O)CCn2c(=O)oc3ccccc32)c(OC)c1	8.51
COc1ccc(Sc2nnc(-c3ccccc3)cc2C#N)cc1	14.6
Cc1cc(C)cc(Nc2ncc3c(n2)CC(c2ccco2)CC3=O)c1 (stereo not shown)	4.76
C(=C\c1nc2ccccc2[nH]1)/c1ccccc1	-4.37
COc1ccccc1/C=N/NC(=O)c1ccc(C)nc1	11.9
CC1(C)CC(=O)C2=C(C1)Nc1ccccc1NC2c1cccs1 (stereo not shown)	12.9
C=CCn1c(SCC(=O)Nc2ccccc2C)nc(O)cc1=O	6.15
Cc1ccc(NC(=O)c2cccc(S(=O)(=O)N3CCN(c4ccccc4)CC3)c2)nc1	-2.21
O=C(NCCc1ccc(O)c(O)c1)C1COc2ccccc2O1 (stereo not shown)	13.3
COc1ccc([C@H](OC)[C@@]2(Cc3ccc(O)cc3)N=C(N)N(C)C2=O)cc1	10.7
C=CCc1cccc(C=Nc2ccc(Br)cc2)c1O	2.49
COc1cccc(C(=O)N(Cc2nc(-c3cccc(C)c3)no2)C(C)C)c1OC	13.6
COc1ccccc1NC(=O)C1=C(C)NC2=C(C(=O)CC(c3ccc(OC)c(OC)c3)C2)C1c1coc2ccccc2c1=O (stereo not shown)	4.43
Cc1nnc(SCC(=O)Nc2ccc3c(c2)COC3=O)n1-c1ccccc1	5.8

Structure (SMILES)	hERG current change (%, negative = inhibition) at 1uM [%]
Cc1ccc(Oc2ccccc2NC(=O)CN2C(=O)NC3(CCCC3)C2=O)cc1	10.3
COc1ccc(Br)cc1CN1CCN(C(=O)c2ccc(OC)c(OC)c2)CC1.O=C(O)C(=O)O	-4.77
O=C(NCCc1ccc(Cl)cc1)c1n[nH]c2ccccc12	12.2
Brc1ccc(OCCCCCN2CCOCC2)cc1.O=C(O)C(=O)O	-18.3
COc1ccc(-n2ccnc2SCC(=O)NCc2ccc3c(c2)OCO3)cc1	2.14
COc1ccccc1OCC(=O)NC1CCCc2ccccc21 (stereo not shown)	13.2
CNNC(=S)Nc1ccc(Cl)cc1	-1.94
CC(C)(C)NS(=O)(=O)c1ccc(NC(=O)c2cc(-c3ccccc3)nc3ccccc23)cc1	-11.2
CCN(CC)S(=O)(=O)c1ccc(N2CCOCC2)c(NC(=O)c2cccc3c(=O)c(C)c(-c4ccccc4)oc23)c1	1.3
Cc1c(C(=O)NCCC2=CCCCC2)cccc1[N+](=O)[O-]	11.3
Cc1ccc2c(c1)C(c1ccccc1)N(C(=O)c1ccccc1)CC(=O)N2 (stereo not shown)	8.26
CN(C)S(=O)(=O)c1ccc(N2CCCC2)c(C(=O)Nc2ccc(F)cc2F)c1	-21.8
CN(CC(=O)NCC1CCCCC1)CC(=O)Nc1ccccc1Br	-8.15
O=C(Nc1c2c(nn1-c1cccc(Cl)c1)CS(=O)(=O)C2)c1cccs1	5.14
NC(=O)c1ccc(N2CCN(c3ccccc3O)CC2)c([N+](=O)[O-])c1	2.22
CN(C)C(CNC(=O)c1ccccc1OCc1ccc(Cl)cc1)c1ccco1 (stereo not shown)	-2.35
Cc1cc(OCCCN2CCN(Cc3ccccc3)CC2)ccc1[N+](=O)[O-].O=C(O)C(=O)O	-52.5
CC(=O)c1ccc2c(c1)OCO2	9.93
CCN(CC)Cc1c(C(=O)N/N=C/c2cccs2)nnn1-c1nonc1N	-6.62
CN(Cc1ccccc1Br)C(=O)CN1C(=O)NC2(CCCCCC2)C1=O	8.24
O=C1CC(c2ccc(Cl)cc2)c2c(O)cc(O)cc2O1 (stereo not shown)	16.1
COc1ccc(C2SCC(=O)Nc3c2c(C)nn3C2CCOC(C)(C)C2)cc1OC (stereo not shown)	5.5

Structure (SMILES)	hERG current change (%, negative = inhibition) at 1uM [%]
COc1ccc(OC)c(NC(=O)c2cc3n(n2)C(C(F)(F)F)CC(c2ccc4c(c2)OCO4)N3)c1 (stereo not shown)	5.75
NC(=O)c1ccc[n+](CC(=O)NCc2ccc(Cl)cc2)c1.[Cl-]	9.65
OC(C#CCN1CCCCC1)(c1ccccc1)c1ccccc1	-4.27
CSc1nc2nc3c(cc2c(=O)n1-c1ccccc1C)COC(C)(C)C3	-0.995
Cc1ccc(C2=NOC(C)(c3nnc(-c4ccncc4)o3)C2)cc1 (stereo not shown)	10.5
CCOC(=O)Cn1nc(C)n(-c2ccccc2)c1=O	-13.3
Cc1cc(C)c(NC(=O)CN2C(=O)NC(Cc3ccccc3)C2=O)c(C)c1 (stereo not shown)	11.3
O=S(=O)(/N=C/c1ccccc1O)c1cccs1	10.7
CC(=O)c1c(C)[nH]c(C(=O)CSc2nc3ccc(C)cc3[nH]2)c1C	7.46
CCCc1nc2oc3c(Cl)ncnc3c2c2c1CCCC2	11.2
CS(=O)(=O)O.OC(CCN1CCCCC1)(c1ccccc1)c1ccccc1	-13.9
O=c1cc(Nc2ccc3c(c2)OCCO3)[nH]c(=O)n1Cc1ccc(F)cc1	1.16
Cc1ccc(-c2noc(-c3ccccc3C(=O)N3CCN(C)CC3)n2)cc1	-13.9
COc1ccc(CCNC(=O)Cn2cnc3sc(C)c(-c4ccc(F)cc4)c3c2=O)cc1OC	11.1
Cc1ccn2c(c1)nc(=O)c1cc(S(=O)(=O)N3CCOCC3)ccc12	8.6
COc1ccccc1/C=N/NC(=O)c1ccc(NC(=O)c2ccccc2Br)cc1	7.53
COc1cc(C2c3c([nH]c(=O)[nH]c3=O)Nc3ccc4ccccc4c32)ccc1O (stereo not shown)	0.257
O=C(CNC(=O)c1ccccc1C(=O)O)c1ccccc1	-4.41
OCCC1CN(Cc2nc(-c3ccccc3)cs2)CCN1Cc1ccc(F)cc1 (stereo not shown)	-47.1
CCOc1ccc(N(C(C)C(=O)N/N=C(\C)C(C)(C)C)S(C)(=O)=O)cc1 (stereo not shown)	7.81
O=C(NCc1ccco1)/C(=C/c1ccco1)NC(=O)c1ccco1	9.62
COc1ccc(CNC(=O)OCCN2CCN(Cc3ccccc3)CCC2=O)cc1	-8.62
